# From the supplement of paper PMC8728848
# This is one part of the list.
# B1: UDA (Urtica dioica), P11218 (protein)
# chain: MMMRFLSAVVIMSSAMAVGLVSAQRCGSQGGGGTCPALWCCSIWGWCGDSEPYCGRTCENKCWSGERSDHRCGAAVGNPPCGQDRCCSVHGWCGGGNDYCSGSKCQYRCSSSVRGPRVALSGNSTANSIGNVVVTEPLFDQMFSHRKDCPSQGFYSYHSFLVAAESFPAFGTIGDVATRKREVAAFLAHISQATSGERSDVENPHAWGLCHINTTTVTENDFCTSSDWPCAAGKKYSPRGPIQLTHNFNYGLAGQAIGEDLIQNPDLVEKDPIISFKTALWFWMSQHDNKPSCHDIVLNANSAANRIPNKGVIGNIISRAFGHDDFAVRSSSIGFYKRYCDMLGVSYGHDLKYWFDNTPSSEFQRIQMRVAA
# Legend:
# Assay in all cases: glycan array binding signal (z-score within array); higher = stronger binding
# Details in all cases: glycan notation: IUPAC condensed, linker removed
# [1] = biological target: Gal(b1-3)[Fuc(a1-4)]GlcNAc(b1-3)Gal(b1-3)[Fuc(a1-4)]GlcNAc
# Summary of the method: (§1)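 Arrays were curated from the Consortium for Functional Glycomics database, 3228 in total, and kept only where the protein sequence was available. Binding is expressed as a within-array Z-score. This score was averaged across arrays of the same protein sequence at different concentrations or buffers and across linkers, and negative values can be read as non-binding.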
# [2] = biological target: Gal(b1-3)[Fuc(a1-4)]GlcNAc(b1-3)Gal(b1-4)[Fuc(a1-3)]GlcNAc
# Summary of the method: as §1
# [3] = biological target: Gal(b1-3)[Fuc(a1-4)]GlcNAc(b1-6)GalNAc
# Summary of the method: as §1
# [4] = biological target: Gal(b1-3)[GlcNAc(b1-6)]GalNAc
# Summary of the method: as §1
# [5] = biological target: Gal(b1-3)[Neu5Ac(a2-6)]GalNAc
# Summary of the method: as §1
# [6] = biological target: Gal(b1-3)[Neu5Ac(a2-6)]GlcNAc(b1-4)Gal(b1-4)Glc
# Summary of the method: as §1
# [7] = biological target: Gal(b1-3)[Neu5Ac(b2-6)]GalNAc
# Summary of the method: as §1
# Gal(b1-4)Gal = biological target: Gal(b1-4)Gal
# Summary of the method: as §1
# [8] = biological target: Gal(b1-4)GalNAc(a1-3)[Fuc(a1-2)]Gal(b1-4)GlcNAc
# Summary of the method: as §1
# [9] = biological target: Gal(b1-4)GalNAc(b1-3)[Fuc(a1-2)]Gal(b1-4)GlcNAc
# Summary of the method: as §1
# Gal(b1-4)Glc = biological target: Gal(b1-4)Glc
# Summary of the method: as §1
# Gal(b1-4)Glc6S = biological target: Gal(b1-4)Glc6S
# Summary of the method: as §1
# Gal(b1-4)GlcNAc = biological target: Gal(b1-4)GlcNAc
# Summary of the method: as §1
# [10] = biological target: Gal(b1-4)GlcNAc(a1-6)Gal(b1-4)GlcNAc
# Summary of the method: as §1
# Gal(b1-4)GlcNAc(b1-2)Man = biological target: Gal(b1-4)GlcNAc(b1-2)Man
# Summary of the method: as §1
# [11] = biological target: Gal(b1-4)GlcNAc(b1-2)Man(a1-3)Man(b1-4)GlcNAc(b1-4)GlcNAc
# Summary of the method: as §1
# [12] = biological target: Gal(b1-4)GlcNAc(b1-2)Man(a1-3)[Gal(b1-4)GlcNAc(b1-2)Man(a1-6)]Man(b1-4)GlcNAc(b1-4)GlcNAc
# Summary of the method: as §1
# [13] = biological target: Gal(b1-4)GlcNAc(b1-2)Man(a1-3)[Gal(b1-4)GlcNAc(b1-2)Man(a1-6)]Man(b1-4)GlcNAc(b1-4)[Fuc(a1-6)]GlcNAc
# Summary of the method: as §1
# [14] = biological target: Gal(b1-4)GlcNAc(b1-2)Man(a1-3)[Gal(b1-4)GlcNAc(b1-2)Man(a1-6)][Gal(b1-4)GlcNAc(b1-4)]Man(b1-4)GlcNAc(b1-4)[Fuc(a1-6)]GlcNAc
# Summary of the method: as §1
# [15] = biological target: Gal(b1-4)GlcNAc(b1-2)Man(a1-3)[Gal(b1-4)GlcNAc(b1-2)Man(a1-6)][GlcNAc(b1-4)]Man(b1-4)GlcNAc(b1-4)[Fuc(a1-6)]GlcNAc
# Summary of the method: as §1
# [16] = biological target: Gal(b1-4)GlcNAc(b1-2)Man(a1-3)[GlcNAc(b1-2)Man(a1-6)]Man(b1-4)GlcNAc(b1-4)GlcNAc
# Summary of the method: as §1
# [17] = biological target: Gal(b1-4)GlcNAc(b1-2)Man(a1-3)[GlcNAc(b1-4)][Gal(b1-4)GlcNAc(b1-2)Man(a1-6)]Man(b1-4)GlcNAc(b1-4)GlcNAc
# Summary of the method: as §1
# [18] = biological target: Gal(b1-4)GlcNAc(b1-2)Man(a1-3)[Man(a1-6)]Man(b1-4)GlcNAc(b1-4)GlcNAc
# Summary of the method: as §1
# [19] = biological target: Gal(b1-4)GlcNAc(b1-2)Man(a1-6)Man(b1-4)GlcNAc(b1-4)GlcNAc
# Summary of the method: as §1
# [20] = biological target: Gal(b1-4)GlcNAc(b1-2)Man(a1-6)[GlcNAc(b1-2)Man(a1-3)]Man(b1-4)GlcNAc(b1-4)GlcNAc
# Summary of the method: as §1
# [21] = biological target: Gal(b1-4)GlcNAc(b1-2)Man(a1-6)[Man(a1-3)]Man(b1-4)GlcNAc(b1-4)GlcNAc
# Summary of the method: as §1
# [22] = biological target: Gal(b1-4)GlcNAc(b1-2)[Gal(b1-4)GlcNAc(b1-4)]Man(a1-3)[Gal(b1-4)GlcNAc(b1-2)Man(a1-6)]Man(b1-4)GlcNAc(b1-4)GlcNAc
# Summary of the method: as §1
# [23] = biological target: Gal(b1-4)GlcNAc(b1-2)[Gal(b1-4)GlcNAc(b1-4)]Man(a1-3)[Gal(b1-4)GlcNAc(b1-2)[Gal(b1-4)GlcNAc(b1-6)]Man(a1-6)]Man(b1-4)GlcNAc(b1-4)GlcNAc
# Summary of the method: as §1
# [24] = biological target: Gal(b1-4)GlcNAc(b1-2)[Gal(b1-4)GlcNAc(b1-4)]Man(a1-3)[GlcNAc(b1-4)][Gal(b1-4)GlcNAc(b1-2)Man(a1-6)]Man(b1-4)GlcNAc(b1-4)GlcNAc
# Summary of the method: as §1
# [25] = biological target: Gal(b1-4)GlcNAc(b1-2)[Gal(b1-4)GlcNAc(b1-4)]Man(a1-3)[GlcNAc(b1-4)][Gal(b1-4)GlcNAc(b1-2)[Gal(b1-4)GlcNAc(b1-6)]Man(a1-6)]Man(b1-4)GlcNAc(b1-4)GlcNAc
# Summary of the method: as §1
# [26] = biological target: Gal(b1-4)GlcNAc(b1-2)[Gal(b1-4)GlcNAc(b1-6)]Man(a1-6)[Gal(b1-4)GlcNAc(b1-2)Man(a1-3)]Man(b1-4)GlcNAc(b1-4)GlcNAc
# Summary of the method: as §1
# [27] = biological target: Gal(b1-4)GlcNAc(b1-2)[Gal(b1-4)GlcNAc(b1-6)]Man(a1-6)[Gal(b1-4)GlcNAc(b1-2)Man(a1-3)]Man(b1-4)GlcNAc(b1-4)[Fuc(a1-6)]GlcNAc
# Summary of the method: as §1
# [28] = biological target: Gal(b1-4)GlcNAc(b1-2)[Gal(b1-4)GlcNAc(b1-6)]Man(a1-6)[GlcNAc(b1-4)][Gal(b1-4)GlcNAc(b1-2)Man(a1-3)]Man(b1-4)GlcNAc(b1-4)GlcNAc
# Summary of the method: as §1
# [29] = biological target: Gal(b1-4)GlcNAc(b1-2)[Gal(b1-4)GlcNAc(b1-6)]Man(a1-6)[GlcNAc(b1-4)][Gal(b1-4)GlcNAc(b1-2)[Gal(b1-4)GlcNAc(b1-4)]Man(a1-3)]Man(b1-4)GlcNAc(b1-4)[Fuc(a1-6)]GlcNAc
# Summary of the method: as §1
# [30] = biological target: Gal(b1-4)GlcNAc(b1-3)Gal(b1-3)GalNAc
# Summary of the method: as §1
# [31] = biological target: Gal(b1-4)GlcNAc(b1-3)Gal(b1-3)GlcNAc
# Summary of the method: as §1
# [32] = biological target: Gal(b1-4)GlcNAc(b1-3)Gal(b1-4)Glc
# Summary of the method: as §1
# [33] = biological target: Gal(b1-4)GlcNAc(b1-3)Gal(b1-4)GlcNAc
# Summary of the method: as §1
binder,measurement,setting,value
B1,glycan array binding signal (z-score),[1],-0.175
same,glycan array binding signal (z-score),[2],-0.175
same,glycan array binding signal (z-score),[3],-0.176
same,glycan array binding signal (z-score),[4],-0.182
same,glycan array binding signal (z-score),[5],-0.117
same,glycan array binding signal (z-score),[6],-0.215
same,glycan array binding signal (z-score),[7],-0.187
same,glycan array binding signal (z-score),Gal(b1-4)Gal,-0.178
same,glycan array binding signal (z-score),[8],-0.127
same,glycan array binding signal (z-score),[9],-0.171
same,glycan array binding signal (z-score),Gal(b1-4)Glc,-0.181
same,glycan array binding signal (z-score),Gal(b1-4)Glc6S,-0.189
same,glycan array binding signal (z-score),Gal(b1-4)GlcNAc,0.006
same,glycan array binding signal (z-score),[10],-0.161
same,glycan array binding signal (z-score),Gal(b1-4)GlcNAc(b1-2)Man,-0.17
same,glycan array binding signal (z-score),[11],2
same,glycan array binding signal (z-score),[12],-0.17
same,glycan array binding signal (z-score),[13],-0.175
same,glycan array binding signal (z-score),[14],-0.178
same,glycan array binding signal (z-score),[15],-0.176
same,glycan array binding signal (z-score),[16],-0.126
same,glycan array binding signal (z-score),[17],-0.175
same,glycan array binding signal (z-score),[18],4.63
same,glycan array binding signal (z-score),[19],-0.165
same,glycan array binding signal (z-score),[20],-0.175
same,glycan array binding signal (z-score),[21],-0.153
same,glycan array binding signal (z-score),[22],0.22
same,glycan array binding signal (z-score),[23],0.393
same,glycan array binding signal (z-score),[24],-0.178
same,glycan array binding signal (z-score),[25],-0.17
same,glycan array binding signal (z-score),[26],-0.058
same,glycan array binding signal (z-score),[27],-0.17
same,glycan array binding signal (z-score),[28],-0.17
same,glycan array binding signal (z-score),[29],-0.179
same,glycan array binding signal (z-score),[30],-0.179
same,glycan array binding signal (z-score),[31],-0.175
same,glycan array binding signal (z-score),[32],-0.189
same,glycan array binding signal (z-score),[33],-0.069
